Structures are written as SMILES. The whole screen tested about 310,000 compounds, of which about 14,000 (4.5%) showed an effect of 50% or more. Effects have a minus sign here. The list shows a part of the results.
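Note: peak tail current of the secondary pulse compared with the same well before compound.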

In this experiment the target is human ether-à-go-go-related gene (hERG) potassium channel (human, UniProt Q12809). The experiment can be described thus: primary screen, population patch clamp on CHO cells stably expressing hERG.
human ether-à-go-go-related gene (hERG) potassium channel, sequence (Q12809 whole entry, looked up): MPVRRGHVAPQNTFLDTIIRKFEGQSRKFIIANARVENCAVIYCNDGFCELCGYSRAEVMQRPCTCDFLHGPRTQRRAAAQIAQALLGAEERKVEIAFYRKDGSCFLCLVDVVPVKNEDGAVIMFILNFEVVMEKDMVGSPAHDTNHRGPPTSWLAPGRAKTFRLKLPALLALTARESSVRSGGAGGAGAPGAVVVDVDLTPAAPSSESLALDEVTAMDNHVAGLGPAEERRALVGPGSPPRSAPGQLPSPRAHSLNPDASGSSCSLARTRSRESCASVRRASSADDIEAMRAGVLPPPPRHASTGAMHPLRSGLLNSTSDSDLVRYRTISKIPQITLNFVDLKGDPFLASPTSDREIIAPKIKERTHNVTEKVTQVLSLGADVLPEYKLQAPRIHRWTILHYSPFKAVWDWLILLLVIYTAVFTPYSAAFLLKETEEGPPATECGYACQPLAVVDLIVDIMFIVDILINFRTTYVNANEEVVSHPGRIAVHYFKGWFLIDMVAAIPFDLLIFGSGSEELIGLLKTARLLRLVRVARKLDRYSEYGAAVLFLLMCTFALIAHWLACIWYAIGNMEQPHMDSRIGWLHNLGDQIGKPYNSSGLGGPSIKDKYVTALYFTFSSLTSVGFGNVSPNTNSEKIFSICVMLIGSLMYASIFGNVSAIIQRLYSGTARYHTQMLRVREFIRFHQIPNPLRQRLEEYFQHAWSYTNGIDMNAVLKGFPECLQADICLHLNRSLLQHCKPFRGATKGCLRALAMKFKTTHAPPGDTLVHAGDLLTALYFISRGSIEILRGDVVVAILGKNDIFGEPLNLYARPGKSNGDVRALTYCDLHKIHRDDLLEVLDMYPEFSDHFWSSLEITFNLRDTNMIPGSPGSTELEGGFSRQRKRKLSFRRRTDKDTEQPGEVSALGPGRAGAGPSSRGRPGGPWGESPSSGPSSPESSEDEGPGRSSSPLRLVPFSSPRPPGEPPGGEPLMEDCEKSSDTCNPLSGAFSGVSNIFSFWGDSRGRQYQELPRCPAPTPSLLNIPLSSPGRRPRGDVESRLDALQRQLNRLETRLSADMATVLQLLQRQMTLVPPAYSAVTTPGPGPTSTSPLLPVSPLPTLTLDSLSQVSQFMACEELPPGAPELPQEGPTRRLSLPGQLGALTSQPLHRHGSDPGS
For `O=C(Nc1ccc2ccccc2c1)NC1CCS(=O)(=O)C1` (stereo not shown), the “hERG current change (%, negative = inhibition) at 10uM” value is given as 6.88%. For the molecule `O=C(COc1ccc(Cl)cc1Cl)N/N=C/c1ccccn1`, the “hERG current change (%, negative = inhibition) at 10uM” value was -21.4%.

For the molecule `O=C(CCCCCn1c(=S)[nH]c2ccccc2c1=O)N1CCOCC1`, the “hERG current change (%, negative = inhibition) at 10uM” value amounted to 0.941%. The figure for `NC(=S)N=Nc1c(O)[nH]c2cc(F)c(F)cc12` is -0.539%; for `CC(NC(=O)c1ccccc1)C(=O)N/N=C/c1ccco1` (stereo not shown) it is 18.8%.

For `CCc1ccc(/C=C2/Sc3ccccc3N(CC(=O)NCCCN3CCOCC3)C2=O)cc1`, the “hERG current change (%, negative = inhibition) at 10uM” value was -41.3%.

For the molecule `NC(=O)c1ccc(NC(=O)COC(=O)c2ccc3c(c2)OCCO3)cc1`, the “hERG current change (%, negative = inhibition) at 10uM” value is -4.09%. Next, `COC(=O)c1sc(S(=O)(=O)NCCCN(C)C)c(C(=O)OC)c1C`: 4.45%; `O=C(N/C(=C\c1cccnc1)C(=O)N1CCOCC1)c1cccc(Br)c1`: 6.87%; `O=C(CNCc1ccccc1)NCCCN1CCCC1=O.O=C(O)C(=O)O`: 14.4%. As for `CCN(CC)C(=O)Cc1ccccc1`, the “hERG current change (%, negative = inhibition) at 10uM” value was found to be 13%. The figure for `O=C(O)c1ccc(S(=O)(=O)/N=C2\C=C(Nc3ccccc3F)C(=O)c3ccccc32)cc1` is -4.61%; for `COc1ccc(C)cc1S(=O)(=O)Nc1cc(Cl)ccc1Cl` it is 7.53%; for `CC(C)(C)c1cc(NC(=O)CCSc2nnc3ccccn23)cc(C(C)(C)C)c1` it is 2.45%. The figure for `CCOc1cc(NS(=O)(=O)CC)c(OCC)cc1NC(=O)c1ccco1` is -17.6%.

With `CCOCCCn1c(=NC(C)=O)c(C#N)cc2c(=O)n3cccc(C)c3nc21`, the “hERG current change (%, negative = inhibition) at 10uM” value is on record as -41.8%.

As for `CC(C)c1ccc(C2(C)NC(=O)N(CC(=O)NC3CCCC(C)C3C)C2=O)cc1` (stereo not shown), the “hERG current change (%, negative = inhibition) at 10uM” value is -7.2%. The figure for `Cc1nnc2c(N3CCN(CCO)CC3)nc3ccccc3n12` is 1.27%. Next, `Cc1ccc(N2CC(C(=O)Nc3ccc4c(c3)OCO4)CC2=O)cc1C` (stereo not shown): 14.1%. For `Cc1c(C)c2cccnc2c2ncccc12`, the “hERG current change (%, negative = inhibition) at 10uM” value is -1.81%. In the case of `COc1ccc(OC)c(C2C3=C(N=C4SCC(=O)N42)c2ccccc2CC3)c1` (stereo not shown), the “hERG current change (%, negative = inhibition) at 10uM” value is given as 2.19%. Consider `O=C(O)c1cccnc1Sc1ncnc2sc3c(c12)CCC3`, for which the “hERG current change (%, negative = inhibition) at 10uM” value is given as 8.49%. In the case of `O=C(N/N=C\c1ccc(F)cc1)c1cc(OCC(F)(F)F)ccc1OCC(F)(F)F`, the “hERG current change (%, negative = inhibition) at 10uM” value was -21%.

For `Cc1ccc(CNCC(O)(c2ccccc2)c2ccc(F)cc2)cc1` (stereo not shown), the “hERG current change (%, negative = inhibition) at 10uM” value is -45.6%.

In the case of `O=C1CCCc2c1[nH]c1ccccc21`, the “hERG current change (%, negative = inhibition) at 10uM” value is given as 17.5%.

For the origin of these results see article PMC4336329 (PLoS ONE, 2015).
